# Reference: PubChem BioAssay AID1460 (National Center for Advancing Translational Sciences (NCATS), 2008)
# About 5,800 (2.1%) of roughly 270,000 compounds were called active. This list was built around the results that the source calls inconclusive (neither active nor inactive); the mix of calls is not that of the screen. Calls come from the whole dose curve; as a rule, active = well fitted inhibition curve with a large enough effect; inconclusive = small, poorly fitted or top-dose-only effect; inactive = flat fitted curve, though single readings scatter. Potencies of inconclusive entries are doubtful fits and often do not repeat.
# Target: Microtubule-associated protein tau (Homo sapiens) (UniProt P10636)
# Sequence of UniProt P10636 (P10636 whole entry, looked up): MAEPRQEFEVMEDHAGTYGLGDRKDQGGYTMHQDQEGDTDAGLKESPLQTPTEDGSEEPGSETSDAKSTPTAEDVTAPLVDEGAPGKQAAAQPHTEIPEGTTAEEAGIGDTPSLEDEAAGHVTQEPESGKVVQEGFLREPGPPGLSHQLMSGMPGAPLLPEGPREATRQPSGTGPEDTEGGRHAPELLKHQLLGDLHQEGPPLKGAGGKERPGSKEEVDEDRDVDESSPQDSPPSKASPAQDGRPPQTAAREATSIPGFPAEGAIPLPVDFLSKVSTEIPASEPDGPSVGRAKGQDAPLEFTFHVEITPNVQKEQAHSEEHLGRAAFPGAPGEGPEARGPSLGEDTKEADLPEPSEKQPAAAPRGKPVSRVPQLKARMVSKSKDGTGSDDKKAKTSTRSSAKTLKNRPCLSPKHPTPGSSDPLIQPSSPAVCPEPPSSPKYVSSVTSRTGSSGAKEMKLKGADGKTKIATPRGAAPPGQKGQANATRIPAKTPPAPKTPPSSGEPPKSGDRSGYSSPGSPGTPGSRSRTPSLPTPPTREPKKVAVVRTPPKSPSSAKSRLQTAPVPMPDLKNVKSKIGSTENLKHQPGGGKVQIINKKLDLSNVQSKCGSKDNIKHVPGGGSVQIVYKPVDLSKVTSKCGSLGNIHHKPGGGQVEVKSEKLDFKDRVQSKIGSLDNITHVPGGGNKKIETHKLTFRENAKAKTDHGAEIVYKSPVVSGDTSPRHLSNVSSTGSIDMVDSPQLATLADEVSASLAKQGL
# Test: qHTS for Inhibitors of Tau Fibril Formation, Thioflavin T Binding; note: nearly all actives have a fitted effect of over 55% in size
# Settings: recombinant tau K18 P301L (four-repeat tau fragment), heparin-induced fibrillization, ThT fluorescence; series mostly up to 57.4 µM; activity, negative = inhibition: at the top concentration
# Outline: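 Aggregation was driven by heparin (20 uM final) acting on recombinant tau […] bearing P301L in 100 mM sodium acetate pH 7; fibrils were detected with Thioflavin T.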
# % is set by controls: 0 for no effect and ±100 for the full control effect; potency is the fitted concentration of half-maximal effect; tags give direction and shape of the fitted curve.
SMILES,Potency,"activity, negative = inhibition"
O=C(c1ccccc1)c1coc2c1C(=O)c1ccccc1C2=O,active: 12.6 µM,–
CCN/N=C(\Cc1nc2ccccc2[nH]1)c1ccccc1,"inconclusive: 20 µM [inhibitor, single point]",–
CC1CCCN(c2ccc(C(=O)NCc3ccco3)cc2[N+](=O)[O-])C1 (stereo not given),"inconclusive: 20 µM [inhibitor, partial curve]",–
O=C(CCN1C(=O)/C(=C/c2ccc(F)cc2)SC1=S)NNC(=O)c1ccncc1,–,inactive: -15.8%
CCOC(=O)c1ccc(-n2c(C)nc3ccc(Br)cc3c2=O)cc1,"inconclusive: 22.4 µM [inhibitor, single point]",–
CS(=O)(=O)c1ccc(C(=O)Nc2ccc(N3CCCC3)cc2)c(Cl)c1,"inconclusive: 12.6 µM [inhibitor, partial curve]",–
CCN1CCN(CC(=O)Nc2nc3ccc(OC)cc3s2)CC1,–,inactive: -9.58%
C=CC[n+]1c(-c2ccc(C)cc2)csc1NNC(=O)Nc1ccccc1,active: 15.8 µM,–
COc1ccc(N/N=C(/C(N)=O)C2=NC(C)(C)Cc3ccccc32)cc1,active: 7.94 µM,–
O=C(c1ccc(F)cc1)C(CN1CCOCC1)c1ccccc1 (stereo not given),"inconclusive: 12.6 µM [inhibitor, partial curve]",–
Cc1nc2ccc(NC(=O)c3cccnc3)cc2s1,"inconclusive: 11.2 µM [inhibitor, partial curve]",–
O=S(=O)(c1ccc(Br)cc1)c1nnn2c1nc(NC1CCCCCC1)c1sccc12,"inconclusive: 44.7 µM [activator, single point]",–
COc1ccccc1NNC(=O)c1cccnc1Oc1ccccc1,"inconclusive: 39.8 µM [inhibitor, single point]",–
O=C(CSc1ccccc1)N1CCc2ccccc21,"inconclusive: 31.6 µM [inhibitor, single point]",–
CCOC(=O)c1c(-c2ccsc2)csc1N,"inconclusive: 31.6 µM [inhibitor, single point]",–
Cc1ccc(C)c2sc(NC(=O)c3ccc(N4CCCCC4)c([N+](=O)[O-])c3)nc12,"inconclusive: 3.55 µM [inhibitor, full curve]",–
CCOC(=O)c1c(N)n(-c2ccccc2CC)c2nc3ccccc3nc12,–,inactive: 1.12%
Cc1ccc(NC(=S)Nc2cccc3cnccc23)cc1,"inconclusive: 20 µM [inhibitor, partial curve]",–
Cc1ccc(C)n1-c1nnc(N2CCC(C(=O)NCc3ccc(F)cc3)CC2)s1,"inconclusive: 39.8 µM [inhibitor, single point]",–
Cc1cc(NS(=O)(=O)c2ccc3nc(-c4ccccc4)[nH]c3c2)ccc1Br,"inconclusive: 15.8 µM [activator, partial curve]",–
